Test results from PubChem BioAssay AID624417 (National Center for Advancing Translational Sciences (NCATS), 2012).
The campaign covered roughly 410,000 compounds. About 6,400 (1.6%) were called active. This list was built around the results that the source calls inconclusive (neither active nor inactive); the mix of calls is not that of the screen. Calls follow the shape of the dose curve; as a rule, active = well fitted inhibition curve with a large enough effect; inconclusive = small, poorly fitted or top-dose-only effect; inactive = no such curve, though single readings can be large or run the other way. No potency is given beside an inconclusive call; the fits are too rough.

The compounds below were run against Glucagon-like peptide 1 receptor (Homo sapiens) (UniProt P43220) (assay: qHTS of GLP-1 Receptor Inverse Agonists (Inhibition Mode)). Conditions: HEK293 GLP-1R CRE-luciferase, luminescence, 24 h, GLP-1R form is constitutively active; activity change, negative = inhibition: at 38.3 µM (top of the series) unless noted.
Sequence of UniProt P43220 (P43220 whole entry, looked up): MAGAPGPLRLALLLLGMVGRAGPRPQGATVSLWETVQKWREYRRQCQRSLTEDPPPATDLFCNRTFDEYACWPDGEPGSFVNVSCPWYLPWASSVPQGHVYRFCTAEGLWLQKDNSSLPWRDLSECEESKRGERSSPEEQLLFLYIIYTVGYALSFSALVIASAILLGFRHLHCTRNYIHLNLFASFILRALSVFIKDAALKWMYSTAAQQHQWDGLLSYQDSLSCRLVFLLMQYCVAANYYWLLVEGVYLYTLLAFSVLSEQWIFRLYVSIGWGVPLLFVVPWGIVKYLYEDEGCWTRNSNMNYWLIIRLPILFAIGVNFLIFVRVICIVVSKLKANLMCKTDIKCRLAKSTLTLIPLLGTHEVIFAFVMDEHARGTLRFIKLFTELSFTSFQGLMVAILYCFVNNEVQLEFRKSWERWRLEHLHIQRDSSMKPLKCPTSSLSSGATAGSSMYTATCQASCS
Summary of the method: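 Inverse agonism was detected as reduced cAMP-driven luciferase luminescence after 24 h compound treatment. The cells were HEK293 clones expressing constitutively active human GLP-1R with the reporter. Reporter-only and GPR119 cell lines served as counterscreen controls.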
% is scaled to controls: 0 for no effect and ±100 for the full control effect; potency is read from the fitted curve at half-maximal effect; tags tell the direction and shape of the fitted curve.
Also: nearly all actives have a fitted effect of over 55% in size.

| SMILES | activity change, negative = inhibition | Potency |
| --- | --- | --- |
| Cc1noc(C)c1CSc1nc2ccccc2n1CCc1ccccc1 | inactive: -2.14% | – |
| Cc1onc(-c2c(Cl)cccc2Cl)c1COC(=O)c1ccc(Cl)cc1[N+](=O)[O-] | – | inconclusive [inhibitor, single point] |
| Cc1cc(=O)oc2ccc(OCC(=O)N(Cc3ccc(F)cc3)Cc3ccco3)cc12 | – | inconclusive [inhibitor, single point] |
| CCOC(=O)c1ccc(N2C(=O)c3n[nH]c(-c4cccs4)c3C2c2ccc(O)c(OC)c2)cc1 (configuration not stated) | – | inconclusive [inhibitor, single point] |
| CCOc1cc(S(=O)(=O)n2cc(-c3ccc(F)cc3)c(N)n2)cc(OCC)c1OCC | – | active: 2.24 µM |
| COc1ccc(/C=C2/CCCC(CN(C)C)C2=O)cc1 (configuration not stated) | – | inconclusive [inhibitor, single point] |
| COc1ccc(C(=O)CSc2nn3c(=O)c(C(C)(C)C)nnc3s2)cc1 | – | inconclusive [inhibitor, single point] |
| COc1ccc(-c2cc(CS(=O)(=O)c3ccccc3)on2)cc1 | – | inconclusive [inhibitor, single point] |
| CCOC(=O)c1[nH]ncc1[C@@H]1C[C@H]2CN(Cc3cccc(Cl)c3)C(=O)[C@]23CCCN13 | – | inconclusive [inhibitor, full curve] |
| CC(OC(=O)CCCN=C1NS(=O)(=O)c2ccccc21)C(=O)Nc1ccc(F)cc1Cl (configuration not stated) | inactive: 7.72% | – |
| Cc1nc(NC(=O)C23CC4CC(CC(C4)C2)C3)sc1Cc1ccc2c(c1)OCO2 | – | inconclusive [inhibitor, partial curve, poor fit] |
| COc1ccc(CC2(CO)CCN(C(C)Cc3ccc(Cl)cc3)CC2)cc1 (configuration not stated) | – | inconclusive [inhibitor, partial curve, poor fit] |
| Cc1cccc(C)c1OCC(=O)Nc1nonc1-c1ccc(Br)cc1 | – | inconclusive [inhibitor, single point] |
| Cc1ccc(-c2nc(CS(=O)(=O)CC(=O)NCc3cccc(F)c3)c(C)o2)cc1 | – | inconclusive [inhibitor, partial curve, poor fit] |
| CC(CCc1ccccc1)NC(=O)c1ccccc1 (configuration not stated) | – | inconclusive [inhibitor, partial curve, poor fit] |
| Cc1cc2cc(C)c(NCCNC(=O)c3ccccc3Cl)nc2cc1C | – | inconclusive [inhibitor, single point] |
| CCCc1cc(NC(=O)CCl)n(-c2ccccc2)n1 | – | inconclusive [inhibitor, single point] |
| Cc1ccc(C(=O)Nc2ccc(-n3c(C)nc4ccccc4c3=O)cc2)cc1[N+](=O)[O-] | – | inconclusive [inhibitor, partial curve, poor fit] |
| O=C(CN1CCC(NC(=O)Nc2ccc(F)cc2)CC1)Nc1ccccc1[N+](=O)[O-] | – | inconclusive [inhibitor, partial curve, poor fit] |
| CCOCN(C(=O)Cn1c(C(C)O)nc2ccccc21)c1c(C)cccc1CC (configuration not stated) | – | inconclusive [inhibitor, partial curve, poor fit] |
| Cc1ccc(S(=O)(=O)Cn2nnnc2C(c2ccc(F)cc2)N2CCC(C(N)=O)CC2)cc1 (configuration not stated) | – | inconclusive [inhibitor, partial curve, poor fit] |

| SMILES | activity change, negative = inhibition | Potency |
| --- | --- | --- |
| COc1ccccc1NC(=O)CCN1CCC(C(N)=O)CC1 | inactive: -3.73% | – |
| Oc1ccc(Br)cc1Cn1nnc2ccccc21 | – | inconclusive [inhibitor, partial curve, poor fit] |
| Cc1ccc(-n2[nH]c(C)c(C=Nc3ccc4[nH]c(=O)[nH]c4c3)c2=O)cc1 | – | inconclusive [inhibitor, single point] |
| Cn1c(NNC(=O)c2cccc3ccccc23)cc(=O)n(C)c1=O | – | inconclusive [inhibitor, single point] |
| C[C@]1(C(=O)NCCc2c[nH]c3ccccc23)C=C[C@@H](Cc2ccccc2)N1C(=O)c1ccccc1 | – | inconclusive [inhibitor, single point] |
| Brc1ccc2c(c1)C(C1=NCCN1)c1ccccc1CS2 (configuration not stated) | – | active: 1.41 µM |
| Cc1ccc(NS(=O)(=O)c2cccc(C(=O)N3CCCCCC3)c2)cc1 | – | inconclusive [inhibitor, partial curve, poor fit] |
| CCOc1ccccc1-n1c(SCC(=O)NC(C)(C)C)nnc1-c1ccoc1C | – | inconclusive [inhibitor, single point] |
| Cc1ccc(NC(=O)CN2CCN(Cc3ccccc3)CC2)c(Br)c1 | – | inconclusive [inhibitor, single point] |
| CC(C)C(NC(=O)c1ccccc1)C(=O)OCc1cc([N+](=O)[O-])cc2c1OCOC2 (configuration not stated) | – | inconclusive [inhibitor, single point] |
| CC(Oc1cccc(Cl)c1)C(=O)NCCCCc1ccccc1 (configuration not stated) | – | inconclusive [inhibitor, single point] |
| N/C(=N\NC(=O)c1sccc1OCc1ccc(Cl)cc1Cl)c1ccccn1 | – | inconclusive [inhibitor, single point] |
| Cc1cccc(NC(=O)CSc2nc3c(c(=O)[nH]2)CN(Cc2ccc4c(c2)OCO4)CC3)c1C | inactive: 4.43% | – |
| COc1cc2c(cc1NC(=O)CC1SC(N3CCCC3)=NC1=O)oc1ccccc12 (configuration not stated) | – | inconclusive [inhibitor, partial curve, poor fit] |
| COc1ccc(-c2csc3ncnc(N4CCN(c5ccc(OC)cc5)CC4)c23)cc1 | – | inconclusive [inhibitor, partial curve, poor fit] |
| Cc1cccc(C(=O)N(Cc2nc3ccccc3c(=O)[nH]2)C2CCCC2)c1 | – | inconclusive [inhibitor, single point] |
| COc1cc(C(O)c2nc(-c3ccc(F)c(Cl)c3)cs2)ccc1F (configuration not stated) | – | inconclusive [inhibitor, single point] |
| CCc1nc2c(OCc3ccc(Cl)cc3)cccn2c1N(C=O)Cc1ccc(OC)cc1 | – | inconclusive [inhibitor, single point] |
| C=C1CCC[C@]2(C)C[C@H]3OC(=O)C(CN(C)CC(OC)OC)[C@H]3CC12 (some centres not stated) | – | inconclusive [inhibitor, single point] |
| COc1ccc(CNC(=O)/C=C/c2ccccc2[N+](=O)[O-])cc1 | inactive: 15.5% | – |
| CC1CN(C(=O)c2ccccc2OCc2ccccc2Cl)CC(C)O1 (configuration not stated) | – | inconclusive [inhibitor, partial curve, poor fit] |

| SMILES | activity change, negative = inhibition | Potency |
| --- | --- | --- |
| O=C(N/N=C/c1ccc(Cl)cc1Cl)c1cccc(N2CCCC2=O)c1 | – | inconclusive [inhibitor, partial curve, poor fit] |
| O=C(C[C@H]1C/C=C\C[C@H](NC(=O)OCC2c3ccccc3-c3ccccc32)C(=O)OC[C@H](Cc2ccccc2)NC1=O)N[C@H](CO)Cc1ccccc1 | inactive: -21.1% | – |
| O=C(NCCc1ccc(Cl)cc1)c1cccn1-c1nnc(N2CCCCC2)s1 | – | inconclusive [inhibitor, single point] |
| COc1ccc([C@H]2CC(=O)C=C(c3cccc(Cl)c3)C2)cc1 | – | inconclusive [inhibitor, partial curve, poor fit] |
| Cc1cc(O)c(C(c2cccc(F)c2)N2CCC(C)CC2)c(=O)n1Cc1ccco1 (configuration not stated) | – | inconclusive [inhibitor, single point] |
| CC=CC1OCC(CC)C(CCC)O1 (configuration not stated) | inactive: -22.9% | – |
| O=C(NCCc1ccc2c(c1)OCCO2)c1cc(S(=O)(=O)N2CCCC2)ccc1Cl | – | inconclusive [inhibitor, partial curve, poor fit] |
| CCN(CC(=O)Nc1ccc2c(c1)OCCO2)C(=O)/C=C/c1ccc(F)cc1 | – | inconclusive [inhibitor, partial curve, poor fit] |
| CN(Cc1nc(-c2ccccc2)no1)C(=O)c1ccc2c(c1)OCO2 | inactive: -25.5% | – |
| Oc1c(C(Nc2nccs2)c2ccc(C(F)(F)F)cc2)ccc2cccnc12 (configuration not stated) | – | inconclusive [inhibitor, single point] |
| Cc1cccc(NC(=O)C(=O)c2cc(C)n(-c3ccccc3)c2C)c1C | – | inconclusive [inhibitor, partial curve, poor fit] |
| O=C(Nc1cccc(-c2nc3ncccc3o2)c1)c1ccc(-c2cccc(Cl)c2Cl)o1 | inactive: 4.07% | – |
| Cc1ccc(S(=O)(=O)N2C[C@H]3C(=O)C[C@@H](c4ccc(Cl)cc4)N(S(=O)(=O)c4ccccc4C)[C@H]3C[C@H]2c2ccccc2)cc1 | – | inconclusive [inhibitor, single point] |
| COc1ccc(NC(=O)/C=C/c2ccc(OC(F)F)cc2)cn1 | – | inconclusive [inhibitor, full curve, poor fit] |
| CCCCOCCCNC(=O)c1ccc2c(c1)OCO2 | – | inconclusive [inhibitor, partial curve, poor fit] |
| COc1cc(/C=C(\CCC(=O)O)c2nc3ccccc3s2)ccc1OCC(=O)Nc1c(Cl)cccc1Cl | inactive: 14.6% | – |
| CN(C)c1ccc(/C=N/Nc2nc3ccccc3o2)cc1 | – | active: 3.55 µM |
| CC(=O)c1nccs1 | inactive: 7.98% | – |
| O=C(CSc1nnc(CN2CCCC2)n1-c1ccc(F)cc1)c1ccc2c(c1)OCO2 | – | inconclusive [inhibitor, partial curve, poor fit] |
| CC(C)(C)NC(=O)NC(=O)COC(=O)Cc1c(Cl)cccc1Cl | – | inconclusive [inhibitor, partial curve, poor fit] |
